From PubChem BioAssay AID1346428 (National Center for Advancing Translational Sciences (NCATS), 2018)
Screen size: about 48,000 compounds; about 1,200 (2.5%) were called active. Inconclusive results (about 2%) are left out.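 How the source made its calls: active means activation of at least 60% and not above a set upper limit (about 1 call in 100 departs from these limits); inconclusive means activation of 40% to 60%, or above that upper limit; inactive means activation under 40%.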 The list shows a part of the results.

Target: Probable G-protein coupled receptor 32 (Homo sapiens) (UniProt O75388)
Test: qHTS for Agonists of Human Resolvin D1 Receptor DRV1; further: 0% is about no effect
Conditions: CHO-K1 GPR32 beta-arrestin PathHunter luminescence, 90 min; at 76.9 µM; active compounds read high; zero percent set by DMSO-only wells
Outline: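 Using DMSO wells as EC0, agonist-induced signal was taken as chemiluminescence from beta-Gal reconstituted upon beta-arrestin recruitment to GPR32 in CHO-K1 cells after 90 min compound treatment.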

Sequence of UniProt O75388 (O75388 whole entry, looked up): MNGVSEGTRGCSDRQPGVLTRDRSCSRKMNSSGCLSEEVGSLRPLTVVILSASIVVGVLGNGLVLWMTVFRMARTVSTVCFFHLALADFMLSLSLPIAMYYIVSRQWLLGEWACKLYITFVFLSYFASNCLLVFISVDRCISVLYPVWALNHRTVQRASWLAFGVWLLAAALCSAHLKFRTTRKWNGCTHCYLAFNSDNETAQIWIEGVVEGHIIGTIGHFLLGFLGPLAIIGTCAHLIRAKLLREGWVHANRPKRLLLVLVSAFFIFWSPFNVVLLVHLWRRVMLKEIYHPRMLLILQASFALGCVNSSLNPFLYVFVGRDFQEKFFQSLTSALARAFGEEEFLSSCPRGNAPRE

activation, inactive:
Cc1ccc2c(=O)cc(C(=O)Nc3sc4c(c3C(=O)NCC3CCCO3)CCCC4)oc2c1C (stereo not drawn) -3.99%
Cc1ccc(Cl)cc1NC(=O)CCc1c(C)nc2c3cccnc3nn2c1C -8.16%
O=C(c1cccc(Cl)c1)N1c2ncnn2C2(CCCCC2)[C@@H]2CCCC[C@@H]21 -20.2%
Cc1ccc2c(c1)N(C(=O)N1CCC(C(=O)NCCc3ccccc3)CC1)CC(C)O2 (stereo not drawn) -8.79%
COc1ccc(-c2ccc3c(N)c(C(=O)NCc4ccc(C)cc4)sc3n2)cc1 -9.97%
CC(C)(C)OC(=O)N1CCC(c2c(C(=O)NCCN3CCOCC3)cnn2-c2ccc(F)cc2)CC1 -0.253%
COc1ccc(C)cc1NC(=O)C(Cc1ccccc1)NS(=O)(=O)c1ccc(Br)s1 (stereo not drawn) 29.8%
O=C(COc1ccc(F)cc1)Nc1nnc(SCc2cc(=O)n3ccccc3n2)s1 2%
CCOc1ccc(-c2nonc2NC(=O)c2oc3cc(C)ccc3c2C)cc1OCC -4.97%
COc1ccc(N2Cc3cccc(C(=O)Nc4ccc(Cl)cc4)c3C2=O)cc1 33.6%
CC[N+](CC)(CC)CC(=O)Nc1c(C)cccc1C -2.87%
Cc1cc(Cl)ccc1NC(=O)CN1C(=O)COc2ccc(S(=O)(=O)Nc3ccccc3)cc21 -0.527%
COc1cccc(Cn2c(SCc3ccc(C(=O)N4CCCCC4)cc3)nc3ccncc32)c1 30.7%
O=C(Nc1nc2n(n1)C(c1ccccc1)C=C(c1ccc(Cl)cc1)N2)c1ccco1 (stereo not drawn) -2.16%
CCOC(=O)C1CCCN(C(=O)c2ccc3c(c2)sc2nc(-c4ccc(C)cc4C)cn23)C1 (stereo not drawn) 4.06%
Cc1ccc(CN(Cc2ccco2)C(=O)COc2cccc(C)c2C)o1 7.91%
CCc1ccccc1NC(=O)c1sc(-n2nc(C)c(Cc3ccccc3)c2C)nc1C -8.74%
COCc1cc(C)nc2sc3c(=O)n(-c4ccccc4C(F)(F)F)nnc3c12 7.55%
COc1ccc(CNC(=O)C2CCN(S(=O)(=O)c3ccc4c(c3)CCCN4C(C)=O)CC2)cc1 2.38%
Cc1ccc(C)c(CSc2nnc3[nH]c(=O)cc(-c4ccccc4)n23)c1 -1.24%
CCOC(=O)c1c(S(=O)(=O)NCC(=O)NCc2ccccc2Cl)c(C)n(C)c1C 0.0738%
CCCn1cc(S(=O)(=O)c2cc(C)ccc2C)c(=O)c2cc(F)c(N3CCN(CC)CC3)cc21 -21.5%
Cc1cccc(C)c1-n1ncc(C(=O)N2CCN(c3ncccn3)CC2)c1C1CCN(C(=O)OC(C)(C)C)CC1 -5.76%
COCCCn1c(=O)c2sccc2n2c(CCCC(=O)NC3CCC(C)CC3)nnc12 (stereo not drawn) -9.31%
Cc1cccc(NC(=O)C2CCN(S(=O)(=O)c3ccc4c(c3)CCCN4C(=O)C3CCC3)CC2)c1 -15.1%
COc1ccc(NC(=O)CSc2cn(CCNC(=O)c3c(F)cccc3F)c3ccccc23)cc1 21.5%
COc1ccc(C(=O)N(Cc2ccc(N(C)C)cc2)CC2CCCO2)cc1 (stereo not drawn) -16.2%
COc1cc(NC(=O)CSc2nc(-c3ccc(C(C)C)cc3)no2)cc(OC)c1 4.93%
CCCN1CCN(CCCNC(=O)Cn2nc(C)n3c(cc4c(OC)cccc43)c2=O)CC1 -2.39%
CCN1CCN(Cc2c(O)ccc3c(=O)c(Oc4ccccc4C(C)C)c(C(F)(F)F)oc23)CC1 -4.86%
COc1ccc(-c2noc(-c3ccc(NC4CCCC4)c([N+](=O)[O-])c3)n2)cc1OC -47.8%
COc1cc(Cl)c(C)cc1NC(c1ccccc1)c1nnc(-c2ccccc2Cl)o1 (stereo not drawn) -30.5%
Cc1ccccc1CNC(=O)c1ccc2nc(C(C)C)oc2c1 -11.1%
CCN(C(=O)Cn1c(=O)n(Cc2ccccc2)c(=O)c2c1c1cc(OC)ccc1n2C)c1ccccc1 -4.69%
Cc1ccc(NC(=O)Cn2cnc3c2c(=O)n(C)c(=O)n3C)cc1C 10.1%
Cc1ccc(CNC(=O)c2cc3ccc4cccnc4c3[nH]2)cc1 34%
Cc1ccc(C)c(N2CCN(S(=O)(=O)c3cn(C)c(C)n3)CC2)c1 4.71%
COc1ccc(C2=Nc3ccc(OC(F)(F)F)cc3NC(c3cccnc3)=N2)cc1 14.9%
CC(=O)Nc1ccc2nc(NC(=O)CS(=O)(=O)c3ccc(C)cc3)sc2c1 45%
CCC(C)n1c(=N)c(C(=O)NC2CCCCC2)cc2c(=O)n3ccccc3nc21 (stereo not drawn) -9.2%
Cc1ccc(C(=O)c2oc3ccccc3c2NC(=O)c2cc(=O)c3cc(C)ccc3o2)cc1 -0.24%
O=C(Nc1ccc(Cl)cc1)N1CCC(CN2CCCCCC2)CC1 -10.9%
COc1cccc(Cn2ccn(-c3ccc(F)cc3)c(=O)c2=O)c1 -7.92%
Cc1cccc(Cn2c(SCc3ccc(C(=O)NCc4ccccc4)cc3)nc3cccnc32)c1 -4.93%
COc1ccc(NC(=O)Cn2cc(C(=O)c3ccncc3)c(=O)c3cc(C)ccc32)cc1Cl -2.18%
COc1ccc(CNC(=O)CCc2c(C)c3ccc(OC)c(C)c3oc2=O)cc1OC 3.1%
CCNC(=O)C1CCCN(c2ncnc3onc(C)c23)C1 (stereo not drawn) 6.66%
COC(=O)c1ccc(-n2nnc(-c3nc(-c4ccccc4Cl)no3)c2C)cc1 -10.9%
Cc1nc2ccn(Cc3ccco3)c(=O)c2cc1C(=O)Nc1ccc(F)cc1 -14%
COc1ccc(NC(=O)Cn2nc(-c3ccccc3)c3cnc4ccc(C)cc4c32)cc1 -13.9%
CN1CCN(C(=O)Cn2c(-c3cccs3)cc3ccccc32)CC1 -1.73%

activation, active:
Cc1ccc(NC(=O)CSc2nc3ccc(NC(=O)CCc4ccccc4)cc3s2)cc1 65.9%
Cc1ccc(NC(=O)c2nnn(Cc3cccc(C(F)(F)F)c3)c2N)c(C)c1 93.4%
